This sample is rich in variants without activity.
B1: TPR 5TU (parent)
chain: GGAUCUUCUCGAUCUAACAAAAAAGACAAAUCUGCCACAAAGCUUGAGAGCAUCUUCGGAUGCAGAGGCGGCAGCCUUCGGUGGCGCGAUAGCGCCAACGUUCUCAACUAUGACACGCAAAACGCGUGCUCCGUUGAAUGGAGUUUAUCAUG

Variants of: B1
Test: polymerase ribozyme fitness, log enrichment relative to wild type (log ratio); higher = more active; in vitro selection for triplet polymerase activity
Method in brief: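 PCR was used to build mutant libraries for each subunit of a heterodimeric triplet polymerase ribozyme, which were then transcribed. A single in vitro selection round, in triplicate, used a frozen incubation at −7 °C and recovered extended constructs by gel excision, streptavidin beads and RT-PCR. Fitness is the logarithm of genotype enrichment relative to wild-type enrichment, averaged over replicates with inverse-variance weights. The logarithm is base 2, and after Illumina sequencing only genotypes with ≥10 input reads and ≥1 read per output were kept.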

Variant	polymerase ribozyme fitness (log ratio)
A16U G70A C99G G143C U148C	≤ -4.2
A16G A19G A23U A26C U44A U53A C87G C103A	-4.11
A16C C18U A20G C35G G46A G94C C96G	≤ -4.2
A16C C43U C51U G68U C93G	≤ -4.2
A16G A26U C38A C63U C85G A91U G117A G141C	≤ -4.2
A16G C27G G84U C118G G128U U151A	≤ -4.2
A16U C18A A21C A73U G92U	-2.75
A16U G50A A52U U55A C57U G84U C103A A107G	≤ -4.2
A16U A26U U56A U104G G126A A138G A142C	≤ -4.2
A16C A41C C57G G59C U135A	-3.85
A16C C38U G50A C95G C116G	-4.14
A16U A21C G71A C95U U104G C116G	≤ -4.2
A16U C36U C72A	≤ -4.2
A16U A23C G46U U61A A66G C87U	≤ -4.2
A16U A21G A28C C51G G65U A98G U135C A142G U148G	≤ -4.2
A16U G58C C75G C93U C103A A115G C132U G141A	≤ -4.2
A16U A49C C75U A120G G140C	≤ -4.2
A16U A21G A24G G25U C95U U109G A120U	≤ -4.2
A16G C27G C54G G83A G86U A97U C105U U146A	≤ -4.2
A16U A21G C32U G50C U151G	≤ -4.2
A16G G68C C75U G94C A98U C105A G143U	≤ -4.2

Variant	polymerase ribozyme fitness (log ratio)
A16C C57A G94A C116U G124A A142U	-3.92
A16G G48A C57A C76U A89C C95A C116G C131A G136C	≤ -4.2
A16G A19C C85U C96A C125U U139A	≤ -4.2
A16G C57G C76A	-1.31
A16U U45A U55G C75A G83A C95U A106U G143A	≤ -4.2
A17C A24C A40C G46C G88A A110U	≤ -4.2
A16U A30U U56A G65C G68U G94U A150U	≤ -4.2
A16U U45A A47C G48A C105U C114U	≤ -4.2
A16U A52G G86U A89U A115G	≤ -4.2
A17C A30U U56A G84C C114A	≤ -4.2
A16G A29G C43A C116U	≤ -4.2
A16U A17C C85G G128A	≤ -4.2
A17C A30U C72U A120U G133C	≤ -4.2
A16U A41G	-1.88
A16C C38U G80U C96G A142C U148G	≤ -4.2
A16C A23C C35U A97G	≤ -4.2
A16U A21U A23U A29C C85U A115G C125A	≤ -4.2
A16U G46A G58A G83A A91U A142C	≤ -4.2
A16G U56A G59C G88U A142C U145C	≤ -4.2
A16C A23U U61G G88U C114A	≤ -4.2
A16G A39U G59U G71A G74A C85G U135C	≤ -4.2

Variant	polymerase ribozyme fitness (log ratio)
A16C C36U C38U C76U A138G G143U	≤ -4.2
A17C C27G A39G G42U U55A G68C C87G A98G	≤ -4.2
A16U C87A C96A G141A	≤ -4.2
A16G A23U A29G A47C G50A C87G A106U U135C A147U	≤ -4.2
A16C G50U G80C G136A	≤ -4.2
A16C A22U U33C C72G G83C	≤ -4.2
A16G G68C	≤ -4.2
A16U A30G A89U C93A A106U U109A	≤ -4.2
A16U U33G U55A C57U G86U A119U	≤ -4.2
A16U C36U G59A C93G C118U U139G	≤ -4.2
A16U C27A C51U A52G C75G C96U	≤ -4.2
A16C A26U G46C C75U C95A C96G C116G	≤ -4.2
A16G G34U A52U A60G C72G G88U A91U G140C	≤ -4.2
A16U A21U G48U G50A C95G C125G	≤ -4.2
A16U C54A U101G A119U C149U	-4.08
A16U U45A G59U C96U A113G C118A	≤ -4.2
A16U U31A C54U A66G C95A	≤ -4.2
A16C A52G U55A G94U A107G	≤ -4.2
A16G G34U C93U U134G G140A	≤ -4.2
A16G A29G A47U C57U A73C C93G A98G A115G	≤ -4.2
A16G C35U C38A A47U C116G C118U U144C	≤ -4.2

Variant	polymerase ribozyme fitness (log ratio)
A16G A24U U44A U90A	≤ -4.2
A16U A17G A26C C69G	≤ -4.2
A16U C51G G84U C125U G133C U139C	≤ -4.2
A16U U90G C96U G133U G143A	≤ -4.2
A16U U33A C76U	≤ -4.2
A17C C18G A40U G86U	-1.43
A16U A17G C85G	-4.18
A16G C76U C79A G83U G152U	≤ -4.2
A16G C85A G100U G133C	≤ -4.2
A16U A20U C51G U55A G58A A91C A106U A138U	≤ -4.2
A16G C27U A28G C43U U53A C57A U82G C93U	≤ -4.2
A16U C43A A49C U55C G83A A89C A91U U130A	≤ -4.2
A17C A21U A40G C79A C85U U148G	≤ -4.2
A16G A29C U56A	≤ -4.2
A16U A22U A30C U61G G83U C85A	≤ -4.2
A16C A30C U45A A47G A106G	≤ -4.2
A17C A19U C76A C87U C96U C114A A147C C149G	≤ -4.2
A16C U44A A142C	≤ -4.2
A16U A110G A147U	≤ -4.2
A16C C43U G46U A52G C95A G112A	≤ -4.2

— the RNAGym collection of RNA variant scans (doi:10.1073/pnas.2313332121)
